Source: publication PMC12261228 (ACS Pharmacology & Translational Science, 2025)

Columns and labels:
[1] = system: porcine brain tubulin; conditions: 10 μM compound; for Vmax (maximal velocity of tubulin polymerization): 3 mg/mL tubulin, 340 nm, 37 °C, mean ± SD (n = 3), DMSO 11.6
[2] = molecular target: porcine brain tubulin (Sus scrofa, UniProt P02550+P02554); format: binding; conditions: four-parameter regression of SPR response
porcine brain tubulin, sequence (P02554 whole entry): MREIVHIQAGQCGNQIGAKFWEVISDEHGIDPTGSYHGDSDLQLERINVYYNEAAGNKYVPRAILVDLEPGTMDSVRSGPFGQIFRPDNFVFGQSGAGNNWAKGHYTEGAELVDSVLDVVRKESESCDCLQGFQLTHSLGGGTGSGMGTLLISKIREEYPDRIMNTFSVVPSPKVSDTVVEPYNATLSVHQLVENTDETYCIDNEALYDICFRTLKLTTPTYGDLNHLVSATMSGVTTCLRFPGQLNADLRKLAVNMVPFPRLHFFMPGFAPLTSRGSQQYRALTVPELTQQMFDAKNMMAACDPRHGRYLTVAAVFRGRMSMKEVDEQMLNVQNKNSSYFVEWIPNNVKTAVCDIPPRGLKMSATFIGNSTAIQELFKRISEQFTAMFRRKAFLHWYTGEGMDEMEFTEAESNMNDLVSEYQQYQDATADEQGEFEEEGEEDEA
porcine brain tubulin, sequence (P02550 whole entry): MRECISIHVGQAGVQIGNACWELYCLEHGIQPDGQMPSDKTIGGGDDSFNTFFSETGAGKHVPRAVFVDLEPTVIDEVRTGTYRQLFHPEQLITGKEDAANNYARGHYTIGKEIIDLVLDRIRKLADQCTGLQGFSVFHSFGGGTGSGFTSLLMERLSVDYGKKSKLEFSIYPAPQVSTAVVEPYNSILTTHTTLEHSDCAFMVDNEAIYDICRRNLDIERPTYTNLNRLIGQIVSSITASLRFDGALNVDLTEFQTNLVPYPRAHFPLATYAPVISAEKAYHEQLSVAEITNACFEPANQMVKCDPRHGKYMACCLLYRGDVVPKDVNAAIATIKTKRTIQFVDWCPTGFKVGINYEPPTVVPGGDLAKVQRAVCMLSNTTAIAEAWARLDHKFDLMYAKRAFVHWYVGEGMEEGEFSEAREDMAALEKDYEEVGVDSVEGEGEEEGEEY

| Compound | effect on tubulin assembly (in words) [1] | Vmax (maximal velocity of tubulin polymerization) [1] | Hill Slope [2] |
| --- | --- | --- | --- |
| COc1cc2c(c(OC)c1OC)-c1ccc(OC)c(=O)cc1[C@@H](NC(=O)CCC1=C3C(C)=CC(C)=[N+]3[B-](F)(F)n3c(C)cc(C)c31)CC2 [CB1] | only weak inhibition of tubulin assembly | 10.4 ± 2.1 mOD/min | – |
| COc1cc2c(c(OC)c1OC)-c1ccc(OC)c(=O)cc1[C@@H](NC(=O)CCCCCCCCCCC1=C3C(C)=CC(C)=[N+]3[B-](F)(F)n3c(C)cc(C)c31)CC2 [CB2] | – | 9.1 ± 3.2 mOD/min | – |
| COc1cc2c(c(OC)c1OC)-c1ccc(OC)c(=O)cc1[C@@H](NC(=O)CCCC[N+](C)(C)CCCCC1=C3C(C)=CC(C)=[N+]3[B-](F)(F)n3c(C)cc(C)c31)CC2 [CB3] | significantly interfered with tubulin assembly | 6.5 ± 1.8 mOD/min | – |
| COc1cc2c(c(OC)c1OC)-c1ccc(OC)c(=O)cc1[C@@H](n1cc(CCCC3=C4C(C)=CC(C)=[N+]4[B-](F)(F)n4c(C)cc(C)c43)nn1)CC2 [CB4] | significantly interfered with tubulin assembly | 4.0 ± 1.0 mOD/min | 2.2 ± 0.5 |
| COc1cc2c(c(OC)c1OC)-c1ccc(OC)c(=O)cc1[C@@H](n1cc(CCCCCCCCC3=C4C(C)=CC(C)=[N+]4[B-](F)(F)n4c(C)cc(C)c43)nn1)CC2 [CB5] | – | 9.5 ± 2.6 mOD/min | – |
| COc1cc(C2=C3C(C)=CC(C)=[N+]3[B-](F)(F)n3c(C)cc(C)c32)ccc1OCc1cn([C@H]2CCc3cc(OC)c(OC)c(OC)c3-c3ccc(OC)c(=O)cc32)nn1 [CB6] | – | 8.6 ± 1.4 mOD/min | – |
| COc1cc2c(c(OC)c1OC)-c1ccc(OC)c(=O)cc1[C@@H](n1cc(CCCC3=C4C(C)=CC(C)=[N+]4[B-](F)(F)n4c(C)cc(C)c43)[n+](C)n1)CC2 [CB7] | – | 9.4 ± 1.0 mOD/min | – |
| COc1cc(C2=C3C(C)=CC(C)=[N+]3[B-](F)(F)n3c(C)cc(C)c32)ccc1OCc1cn([C@H]2CCc3cc(OC)c(OC)c(OC)c3-c3ccc(OC)c(=O)cc32)n[n+]1C [CB9] | – | 10.3 ± 1.0 mOD/min | – |
